Source: PubChem BioAssay AID624296 (National Center for Advancing Translational Sciences (NCATS), 2012)
Out of some 350,000 compounds screened, about 9,900 (2.8%) were called active. Inconclusive means that the source gave no clear call. Such entries were picked first, then a sample of the others. Calls follow the shape of the dose curve; as a rule, active = well fitted activation curve with a large enough effect; inconclusive = small, poorly fitted or top-dose-only effect; inactive = no such curve, though single readings can be large or run the other way. Potencies of inconclusive entries are left out as doubtful fits.
Potency is read from the fitted curve at half-maximal effect; tags tell the direction and shape of the fitted curve.

Assay: A quantitative high throughput screen for small molecules that induce DNA re-replication in MCF 10a normal breast cells. Also: nearly all actives have a fitted effect of over 50% in size.
Conditions: MCF 10A DNA re-replication, Hoechst nuclear intensity, 48 h; series mostly up to 46.1 µM
For `CCN1CCN(c2ncnc3c2nnn3Cc2ccccc2)CC1`, the Potency was inconclusive [activator, partial curve, poor fit]. With `COc1cc2c(cc1NC(=O)CSc1ccc(C)cc1)oc1ccccc12` the Potency was inconclusive [activator, single point]. For `N#C/C(=C/c1ccc(N2CCOCC2)o1)c1nc2ccccc2[nH]1`, the Potency was “inactive”. With `C[C@@H]1CN([C@@H](C)CO)C(=O)Cc2cc(NC(=O)Nc3ccc4c(c3)OCO4)ccc2O[C@@H]1CN(C)C(=O)NC1CCCCC1` the Potency was inconclusive [activator, full curve, poor fit]. In the case of `Nc1nc2n(n1)C(c1cccs1)CC(c1ccc(F)cc1)N2` (configuration not stated), the Potency is reported as “inactive”. For `COC(=O)c1c(NC(=O)CN2C(=O)NC3(CCc4ccccc4C3)C2=O)sc2c1CCCCC2` (configuration not stated), the Potency was “inactive”. In the case of `COc1ccc(S(=O)(=O)NCc2ccco2)cc1NC(=O)c1ccccc1`, the Potency is reported as inconclusive [activator, single point]. In the case of `COc1ccc(/C=C/C(=O)C2CC2)cc1COc1c(C)cccc1C`, the Potency is reported as inconclusive [activator, single point]. With `O=C1Nc2ccccc2S/C1=C/Nc1cccc(Cl)c1` the Potency was inconclusive [activator, partial curve, poor fit]. In the case of `N#CCSc1nc2c(cc1C#N)CCCCCC2`, the Potency is reported as inconclusive [activator, single point]. For `COc1ccc(NC(=O)CN2CCC(C(=O)c3ccc(C)cc3)CC2)c(OC)c1`, the Potency was inconclusive [activator, single point]. In the case of `COc1ccc(SCCN2CC[C@@H](O)CCC2=O)cc1`, the Potency is reported as “inactive”. With `Cc1cc2nc(/C=C/c3nc4cc(C)c(C)cc4[nH]3)[nH]c2cc1C` the Potency was inconclusive [activator, full curve, poor fit]. In the case of `CCc1ccc(N(C(=O)c2ccco2)C(C(=O)NC2CCCC2)c2ccco2)cc1` (configuration not stated), the Potency is reported as inconclusive [activator, partial curve, poor fit]. With `Clc1ncnc2scc(C3COc4ccccc4O3)c12` (configuration not stated) the Potency was inconclusive [activator, single point]. With `CCCCN(C)C1CCN(C(=S)Nc2cccc(OC)c2)CC1` the Potency was “inactive”. With `CC(C)(C)OC(=O)C[C@H]1C/C=C\C[C@H](CC(=O)N[C@H](CO)Cc2ccccc2)C(=O)N[C@@H](Cc2ccccc2)COC1=O` the Potency was “inactive”. For `CCOc1ccc(CN(Cc2ccco2)C(c2cccs2)c2nnnn2C(C)(C)C)cc1` (configuration not stated), the Potency was inconclusive [activator, partial curve, poor fit]. With `O=C(/C=C/c1ccco1)NC(=S)Nc1nc(-c2ccc(Cl)cc2)cs1` the Potency was active: 20.6 µM. With `COc1ccc(NC(=O)CSc2nc(C3CC3)nc3ccccc23)cc1` the Potency was inconclusive [activator, single point]. For `OC(COc1ccccc1)CN1CCCCCC1` (configuration not stated), the Potency was inconclusive [activator, partial curve, poor fit]. In the case of `Cc1ccc(OCC(=O)Nc2cc(S(=O)(=O)N3CCOCC3)ccc2Cl)c([N+](=O)[O-])n1`, the Potency is reported as “inactive”. With `O=c1c2ccccc2ncn1-c1ccc(Br)cc1[N+](=O)[O-]` the Potency was inconclusive [activator, partial curve, poor fit]. With `O=C(O)c1ccccc1C(=O)Nc1ccc(Nc2ccc([N+](=O)[O-])cc2[N+](=O)[O-])cc1` the Potency was inconclusive [activator, partial curve, poor fit]. With `COC(=O)c1scc(C)c1N/N=C(\C)c1ccc(F)cc1F` the Potency was inconclusive [activator, single point]. For `CCOc1ccccc1CN1CCN(Cc2cc3ccccc3[nH]2)CC1CCO` (configuration not stated), the Potency was inconclusive [activator, single point]. For `Cc1ccc(S(=O)(=O)Oc2ccc(N3C(=O)C4C5CCC(C5)C4C3=O)cc2)cc1` (configuration not stated), the Potency was inconclusive [activator, full curve]. For `Cc1ccc(S(=O)(=O)N(Cc2ccccc2)c2ccccc2C(=O)N2CCCCC2)cc1`, the Potency was inconclusive [activator, single point]. For `CC(=O)N(CCC1(c2ccc(C)cc2)CCOC(C(C)C)C1)Cc1ccco1` (configuration not stated), the Potency was inconclusive [activator, partial curve, poor fit]. For `COc1ccc2c(c1)c(C(=O)CN1CCCCC1)c(C)n2C`, the Potency was inconclusive [activator, full curve, poor fit]. For `COc1ccccc1-n1cnc2c(c1=O)c1nc3ccccc3nc1n2-c1ccc(C)c(C)c1`, the Potency was inconclusive [activator, partial curve]. For `OC(COC(c1ccc(Cl)cc1)c1ccc(Cl)cc1)CN1CCc2ccccc2C1` (configuration not stated), the Potency was active: 18.4 µM. In the case of `CC(=O)Nc1ccc(S(=O)(=O)N2CCC(N3CCCC3)CC2)cc1`, the Potency is reported as “inactive”. In the case of `O=C(NCCC1=CCCCC1)C1CCN(S(=O)(=O)c2ccc(Br)s2)CC1`, the Potency is reported as inconclusive [activator, single point]. With `COc1c(Br)cc([N+](=O)[O-])c(OC)c1C(=O)NC(=O)Nc1nc(C)cc(C)n1` the Potency was “inactive”. In the case of `O=C(O)COc1ccc(NC(=O)c2ccc3c(c2)C(=O)N(Cc2ccccc2)C3=O)cc1`, the Potency is reported as inconclusive [activator, single point]. In the case of `CCCCn1c(/N=C/c2ccccc2NS(=O)(=O)c2ccc(C)cc2)nc2ccccc21`, the Potency is reported as inconclusive [activator, single point]. In the case of `COc1cc([N+](=O)[O-])cc(/C=N/NC(=O)CSc2ccccn2)c1O`, the Potency is reported as inconclusive [activator, full curve, poor fit]. With `CCOC(=O)CNC(=O)c1ccc2[nH]c3ccccc3c2c1` the Potency was “inactive”. For `Cc1ccc(-n2ncc3c(=O)n(CC(=O)Nc4cccc(Cl)c4)cnc32)cc1C`, the Potency was “inactive”. With `O=C(/C=C/c1cccc(F)c1)c1ccc(N2CCOCC2)cc1` the Potency was inconclusive [activator, single point]. For `Cc1ccc(C(=O)NCC(C)(C)N2CCOCC2)s1`, the Potency was inconclusive [activator, single point]. With `CCCC[n+]1c2ccccc2cc2ccccc21` the Potency was “inactive”. In the case of `COc1ccc(Oc2nc(C)nc3c2oc2ccccc23)cc1`, the Potency is reported as inconclusive [activator, single point]. For `COc1ccccc1/C=N/OCc1cc(C(C)=O)ccc1OC`, the Potency was “inactive”. With `C=CCn1c(NC(=O)c2ccc(Br)o2)c(S(=O)(=O)c2ccccc2)c2nc3ccccc3nc21` the Potency was active: 11.6 µM. For `Cc1cccc(SC2CCN(Cc3nc(CC4CC4)no3)CC2)c1`, the Potency was inconclusive [activator, partial curve, poor fit]. In the case of `CC(C)c1ccc(/C=C2\Oc3c(ccc(O)c3CN3CCN(C)CC3)C2=O)cc1`, the Potency is reported as inconclusive [activator, partial curve, poor fit]. In the case of `CCCCOCCCNC(=O)CN1C(=O)c2ccccc2C1=O`, the Potency is reported as active: 3.66 µM. With `CCCn1c(N)c(C(=O)CSc2n[nH]c(-c3ccc(C)cc3)n2)c(=O)[nH]c1=O` the Potency was “inactive”. For `Cc1ccccc1-c1nnc(-c2ccc(Br)cc2)o1`, the Potency was inconclusive [activator, single point]. In the case of `CC(Oc1ccccc1)c1ccnn1S(=O)(=O)c1ccccc1` (configuration not stated), the Potency is reported as inconclusive [activator, partial curve, poor fit]. In the case of `CC(C)(C)c1ccc(NC(=O)CSc2nnc(-c3n[nH]c4ccccc34)o2)cc1`, the Potency is reported as inconclusive [activator, single point]. With `COc1ccc(Cl)cc1NC(=O)CN(C)CC(=O)Nc1c(C)n(C)n(-c2ccccc2)c1=O` the Potency was “inactive”. For `Cn1c(=O)c2c(nc(Oc3cccc(Br)c3)n2C)n(C)c1=O`, the Potency was inconclusive [activator, single point]. In the case of `COc1cccc(N(CC(=O)NCCSc2ccccn2)S(=O)(=O)c2ccccc2)c1`, the Potency is reported as “inactive”. In the case of `Cc1ccccc1NC(=O)c1c([N+](=O)[O-])c(C(C)(C)C)nn1C`, the Potency is reported as inconclusive [activator, partial curve, poor fit]. In the case of `COC(=O)N1c2ccccc2C=Cc2ccccc21`, the Potency is reported as inconclusive [activator, partial curve]. For `COc1cc(-c2nc(S(=O)(=O)c3ccc(C)cc3)c(N(C)C)o2)cc(OC)c1OC`, the Potency was inconclusive [activator, single point]. With `COc1ccc(NC(=O)c2ccc(COc3ccccc3)o2)cc1` the Potency was inconclusive [activator, single point]. For `COc1ccc(CNc2c(CO)cnc3c2cnn3C)cc1`, the Potency was active: 14.6 µM. For `O=c1c2ccccc2nc(/C=C/c2cc(Br)ccc2O)n1CCO`, the Potency was active: 14.6 µM. For `CC(C)CN(CC(C)C)S(=O)(=O)N1CCC(C(=O)NCc2ccc(F)cc2)CC1`, the Potency was inconclusive [activator, partial curve, poor fit]. In the case of `CC(C)(C)OC(=O)CNC(=O)c1[nH]cnc1C(=O)Nc1ccc(Cl)cc1`, the Potency is reported as “inactive”. For `Cc1ccc(C(=O)O)cc1S(=O)(=O)NCC1CCCO1` (configuration not stated), the Potency was inconclusive [activator, partial curve, poor fit]. With `CCC/C=C1/CCCOC(C(=O)NCc2ccccc2)(C(F)(F)F)C1` (configuration not stated) the Potency was inconclusive [activator, full curve, poor fit]. In the case of `COc1ccc(O[C@H]2C=C[C@@H](c3ccccc3)O[C@@H]2CO/N=C(\C)CCN2CCc3nc(-c4ccccc4)c(-c4ccccc4)cc3C2)cc1`, the Potency is reported as inconclusive [activator, single point].
